Measured values reported in paper PMC4336329 (PLoS ONE, 2015).
Screen size: about 310,000 compounds; about 2,200 (0.71%) showed an effect of 50% or more. The effect is printed as a negative number. This is one part of the list.

The compounds below were run against human ether-à-go-go-related gene (hERG) potassium channel (human, UniProt Q12809) (assay: primary screen, population patch clamp on CHO cells stably expressing hERG).
Chain of human ether-à-go-go-related gene (hERG) potassium channel (Q12809 whole entry, looked up): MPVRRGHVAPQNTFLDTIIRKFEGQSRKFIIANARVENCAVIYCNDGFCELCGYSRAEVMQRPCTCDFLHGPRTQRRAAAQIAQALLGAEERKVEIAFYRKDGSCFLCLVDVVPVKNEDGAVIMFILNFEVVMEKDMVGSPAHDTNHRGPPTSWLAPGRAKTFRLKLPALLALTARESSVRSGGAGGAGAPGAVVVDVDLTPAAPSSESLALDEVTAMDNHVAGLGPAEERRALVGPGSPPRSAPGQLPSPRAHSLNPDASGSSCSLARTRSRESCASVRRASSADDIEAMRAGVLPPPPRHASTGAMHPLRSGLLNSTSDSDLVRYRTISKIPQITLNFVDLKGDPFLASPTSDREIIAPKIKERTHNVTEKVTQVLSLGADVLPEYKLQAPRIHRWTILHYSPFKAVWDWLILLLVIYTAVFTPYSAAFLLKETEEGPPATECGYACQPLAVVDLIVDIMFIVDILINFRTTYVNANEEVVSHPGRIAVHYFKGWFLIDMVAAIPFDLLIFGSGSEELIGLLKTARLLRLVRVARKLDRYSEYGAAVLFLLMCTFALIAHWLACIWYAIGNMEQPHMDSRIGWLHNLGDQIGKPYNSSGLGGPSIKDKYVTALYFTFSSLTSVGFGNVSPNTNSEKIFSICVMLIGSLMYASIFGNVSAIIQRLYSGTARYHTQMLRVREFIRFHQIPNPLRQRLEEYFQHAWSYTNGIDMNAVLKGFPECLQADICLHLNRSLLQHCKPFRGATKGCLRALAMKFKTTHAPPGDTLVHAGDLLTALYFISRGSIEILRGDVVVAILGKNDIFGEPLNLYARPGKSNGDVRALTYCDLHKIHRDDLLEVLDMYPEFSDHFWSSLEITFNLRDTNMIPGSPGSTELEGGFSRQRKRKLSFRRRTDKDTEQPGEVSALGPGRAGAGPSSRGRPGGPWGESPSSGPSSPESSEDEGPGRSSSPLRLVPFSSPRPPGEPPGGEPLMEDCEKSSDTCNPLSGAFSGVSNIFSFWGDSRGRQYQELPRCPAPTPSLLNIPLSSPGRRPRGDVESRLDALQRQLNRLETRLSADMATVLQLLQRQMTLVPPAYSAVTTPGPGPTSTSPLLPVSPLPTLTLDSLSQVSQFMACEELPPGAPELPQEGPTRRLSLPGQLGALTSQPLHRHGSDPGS

Row | SMILES | hERG current change (%, negative = inhibition) at 1uM [%]
1 | CN(CC(=O)O)S(=O)(=O)c1ccc2c(c1)n(C)c(=O)c(=O)n2C | 16.6
2 | CCCCN(C)CCNC(=O)c1cn(C)c(=O)c2c1c1ccccc1n2C | 11.3
3 | O=C(O)C(=O)O.c1ccc2c(CCNC3CCCCC3)c[nH]c2c1 | 19.6
4 | COCCCN1C(=O)C(=O)/C(=C(/O)c2ccc(S(=O)(=O)N3CCOCC3)cc2)C1c1ccc(F)cc1 (centres unmarked) | 6.04
5 | Cc1ccc(N2C(=O)c3ccccc3C2=O)nc1 | 13.2
6 | O=C(c1ccco1)N1CCN(c2nc3ccccc3c(=O)n2-c2ccccc2)CC1 | -22.1
7 | CC(=O)Nc1cccc(NC(=O)c2cc(-c3ccccn3)nc3ccc(Cl)cc23)c1 | -3.72
8 | COc1ccc(OC)c(NC(=O)C2CCN(S(=O)(=O)c3c(C)noc3C)CC2)c1 | 1.91
9 | CN(C)/C=C/c1c([N+](=O)[O-])c2ccc(O)cc2n1-c1ccccc1 | 13.6
10 | Cc1c(O)ccc(C(=O)CN2CCN(Cc3ccc4c(c3)OCO4)CC2)c1O | 0.814
11 | CC(=O)c1ccc(Cc2cnc(N)s2)cc1 | 1.51
12 | COc1ccccc1CNC(=O)COC(=O)Cc1cccs1 | 6.33
13 | Cc1cc(C(=O)OCC(=O)N(CC(C)C)c2c(N)n(Cc3ccccc3)c(=O)[nH]c2=O)c(C)o1 | 9.08
14 | Cc1ccc(NC(=O)NC(=S)NC(=O)c2ccccc2)cc1 | -4.83
15 | COc1ccc(C(=O)NCCC(=O)N2CCC3(CC2)NCCc2[nH]cnc23)cc1 | 18.4
16 | COC(=O)c1ccc(OC(=O)C2CC(=O)N(c3cccc(C)c3)C2)cc1 (centres unmarked) | 5.65
17 | COC(=O)C1=C(C(=O)OC)SC(=C2C(=S)C(C)(C)N(C(=O)C3CC3)c3ccccc32)S1 | 3.98
18 | O=C(CN1C(=O)COc2ccc(Cl)cc21)N1CCOCC1 | 9.59
19 | COc1ccccc1NC(=O)CCc1nnc2ccc(NCc3ccco3)nn12 | 10.8
20 | O=C(c1ccc2c3c(cccc13)CC2)N1CCN(c2ncccn2)CC1 | 7.43
21 | CSc1nnc(C(C)(C)C)c(=O)n1/N=C/c1ccccc1 | 2.52
22 | CSC(=NNC(=O)c1ccc(O)cc1)SC | 12.7
23 | CCc1ccc(OCC(=O)OC2CCS(=O)(=O)C2)cc1 (centres unmarked) | 5.54

Row | SMILES | hERG current change (%, negative = inhibition) at 1uM [%]
24 | Cc1ccc(-n2nc3ccc(NC(=O)C(C)C)cc3n2)cc1 | 8.82
25 | CN(Cc1cccs1)C(=O)c1cc(S(=O)(=O)N2CCOCC2)ccc1F | 4.08
26 | Br.CC(=O)c1cccc(N=c2scc(-c3ccc(S(=O)(=O)N4CCOCC4)cc3)n2CCO)c1 | -16.5
27 | CC(=O)N(C1=C(N)C(=O)c2ccccc2C1=O)C(C)C | 12.3
28 | Oc1ccccc1N1CCN(c2ncnc3scc(-c4ccccc4)c23)CC1 | 13.3
29 | CCC(=O)Nc1ccccc1C(=O)OCC(=O)c1cccc2ccccc12 | -1.34
30 | O=C(Nc1ccc(Cl)cc1Cl)c1ccc(Br)o1 | 6.99
31 | Cn1c(=O)oc2cc(S(=O)(=O)NCCN3CCCCCC3)ccc21 | 19.5
32 | CC(C)(C)C(CN1CCCC1)OC(=O)c1ccccc1.Cl (centres unmarked) | 12.7
33 | COCC1CCN(C(=O)c2cc(COc3ccc(C)c(C)c3)on2)C1 (centres unmarked) | 5.45
34 | O=S(=O)(c1ccc(F)cc1)N1CN(Cc2ccco2)c2nc3ccccc3nc21 | 10.6
35 | CCc1cc(C(=O)OC)c(NC(=O)CC2NCCNC2=O)s1 (centres unmarked) | 13.1
36 | NS(=O)(=O)c1ccc(Cl)c(C(=O)Nc2ccccc2[N+](=O)[O-])c1 | 8.75
37 | CCC(C(=O)Nc1ccncc1)c1ccccc1 (centres unmarked) | 13.4
38 | Cc1cccc(CSc2nnc(NC(=O)CSc3nnc(C)s3)s2)c1 | 4.56
39 | O=C(c1ccccc1)N1CCCCC(Cl)C1=O (centres unmarked) | 7.83
40 | O=C(NCc1ccccc1Cl)C1CC(=O)N(Cc2ccccc2)C1 (centres unmarked) | 0.378
41 | CN(C(=O)COc1ccccc1)c1nc(-c2ccc(F)cc2)cs1 | 13.3
42 | O=C(O)c1ccc(Br)c(S(=O)(=O)N2CCCC2)c1 | 9.41
43 | CCC(C)[C@H](NC(=O)N1CCn2c1nc1ccccc12)C(=O)NCCc1ccccc1 (some centres unmarked) | 13.3
44 | CCOC(=O)c1sc(N/N=C/c2cc(Br)c(O)c(OC)c2)nc1C | 8.39
45 | O=C(Nc1cccnc1)c1cc(-c2cccnc2)nc2ccc(Br)cc12 | -17.5
46 | CSCCC(N=C1NS(=O)(=O)c2ccccc21)C(=O)NCCc1ccccc1 (centres unmarked) | 30.7

Row | SMILES | hERG current change (%, negative = inhibition) at 1uM [%]
47 | CC1CC(C)CN(c2ccc(C(=O)OCC(=O)NC3CCCc4ccccc43)cc2[N+](=O)[O-])C1 (centres unmarked) | 17.5
48 | COc1ccc(/C=C/C(=O)OCC(=O)c2c(N)n(C)c(=O)n(C)c2=O)cc1 | 9.03
49 | NS(=O)(=O)c1ccc(NC(=O)Nc2cccc(Cl)c2)cc1 | 17
50 | CC1Oc2ccccc2N(CC(=O)NCC2CCCO2)C1=O (centres unmarked) | -4.78
51 | FC(F)(F)c1ccc2c3n(nc2c1)CCN=C3c1ccc(Cl)cc1 | 12.3
52 | CCc1nn(-c2ccccc2)c(=S)c2ccccc12 | 6.04
53 | Cc1nn(-c2ccccc2)c(Cl)c1/C=C1\SC(=S)N(CCCCCC(=O)O)C1=O | -4.69
54 | CNC(=O)c1ccc(-c2ccc(OC)cc2)s1 | 15.6
55 | CCn1c(SC)nnc1C1CCN(CC(=O)Nc2ccccc2N2CCOCC2)CC1 | 5.57
56 | O=C(NCc1ccccc1)C(c1ccccn1)N(C(=O)c1csnn1)c1ccccc1F (centres unmarked) | -0.204
57 | COc1ccc([N+](=O)[O-])cc1NC(=O)CCc1ccccc1 | 7.21
58 | O=C(Nc1cccc(OC(=O)N2CCCCC2)c1)N1CCOCC1 | 12.9
59 | S=c1[nH]c2ccccc2n1Cc1ccccc1 | 16.2
60 | COc1ccc(NC(=O)CSc2ccccn2)c([N+](=O)[O-])c1 | 13.6
61 | CCOc1ccc(C2C(C(=O)c3ccco3)=C(O)C(=O)N2CCCn2ccnc2)cc1OC (centres unmarked) | 1.12
62 | CCOc1ccc(C(=O)CCC(=O)NCC(=O)Nc2c(C)cccc2C)cc1 | 2.9
63 | COC(=O)CCC(=O)NC(=S)Nc1ccc(S(=O)(=O)N2CCCC2)cc1 | 8.06
64 | CC(C)C(=O)Nc1nnc(SCC(=O)N2C(C)CCCC2C)s1 (centres unmarked) | 10.1
65 | O=C(Cn1nnc(-c2ccccc2)n1)Nc1ccccc1N1CCOCC1 | 12.2
66 | CC(OC(=O)CN1C(=O)C2CCCCC2C1=O)C(=O)Nc1ncc(Cl)cc1Cl (centres unmarked) | 17.3
67 | CCOC(=O)C1(Cc2ccc(OC)cc2)CCN(C(=O)c2cc3ccccc3[nH]2)CC1 | 4.46
68 | O=C1CCC([N+](=O)[O-])C(c2cccc(Cl)c2Cl)N1 (centres unmarked) | -3.66
69 | CN(Cc1ccccc1)C(=O)c1[nH]cnc1C(=O)N[C@@H](CCCCNC(=O)OC(C)(C)C)C(=O)OC(C)(C)C | 1.36

Row | SMILES | hERG current change (%, negative = inhibition) at 1uM [%]
70 | Nc1c(-c2ccccn2)cnn1-c1nc(-c2ccc(F)cc2)cs1 | 6.75
71 | Cc1cc(C)nc(SCc2ccc(F)cc2)n1 | 2.48
72 | CCCNS(=O)(=O)c1ccc(OCC(=O)N2CCOCC2)cc1 | 8.1
73 | CCn1c(SCC(=O)Nc2cc(C)on2)nc2c1c(=O)n(C)c(=O)n2C | 16.3
74 | NC(=O)C(=O)N/N=C1\CCc2ccccc21 | 13
75 | COc1cccc(CNC(=O)COC(=O)C2CC3CCCC(C2)C3=O)c1 (centres unmarked) | 12.6
76 | Cn1nc(C(=O)NCC(=O)Nc2ccc(F)c(F)c2F)c2ccccc2c1=O | 11.2
77 | Clc1ccc(CNc2ccccc2NCc2ccc(Cl)nc2)cn1 | 4.92
78 | CN(C)c1ccc(N2C(=NC(=O)CC3CCCCC3)SC3CS(=O)(=O)CC32)cc1 (centres unmarked) | 13.7
79 | Cc1cc(CC(=O)[O-])n(C)c1C(=O)c1ccc(Cl)cc1.[Na+] | 6.14
80 | Cc1csc(N(C)C(=O)CSc2nnc(COc3cccc4ccccc34)o2)n1 | 9.99
81 | O=C(CS(=O)(=O)c1c[nH]c2ccccc12)Nc1ccc(F)cc1 | -3.46
82 | Cc1c(Br)c(=O)oc2cc(OCC(=O)N3C[C@H]4C[C@@H](C3)c3cccc(=O)n3C4)ccc12 | 8.78
83 | O=C(c1ccco1)N1CCCN(Cc2nc(-c3ccc4c(c3)OCO4)no2)CC1 | -28.5
84 | Cc1cccc(C)c1NC(=O)CSc1nnc(-c2ccoc2C)n1C | 7.45
85 | O=C(Nc1ccccc1Cl)Nn1cnnc1 | 17.9
86 | Cc1ccc(C(=O)NCCN2CCOCC2)cc1Cl | 8.75
87 | NC(=O)C1(N2CCCCC2)CCN(C2CC(=O)N(Cc3cccs3)C2=O)CC1 (centres unmarked) | 14
88 | Cc1cc(C)cc(OC(C)C(=O)Nc2ccc3c(c2)n(C)c(=O)n3C)c1 (centres unmarked) | 9.42
89 | c1coc(-c2nc(-c3ccncc3)no2)c1 | 2.91
